# The campaign covered roughly 310,000 compounds. About 14,000 (4.5%) showed an effect of 50% or more. Effects have a minus sign here. This is one part of the list.
# Molecular target: human ether-à-go-go-related gene (hERG) potassium channel (human, UniProt Q12809)
# Test: primary screen, population patch clamp on CHO cells stably expressing hERG
# 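Further: peak tail current of the secondary pulse compared with the same well before compound.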
# Sequence of human ether-à-go-go-related gene (hERG) potassium channel (Q12809 whole entry, looked up): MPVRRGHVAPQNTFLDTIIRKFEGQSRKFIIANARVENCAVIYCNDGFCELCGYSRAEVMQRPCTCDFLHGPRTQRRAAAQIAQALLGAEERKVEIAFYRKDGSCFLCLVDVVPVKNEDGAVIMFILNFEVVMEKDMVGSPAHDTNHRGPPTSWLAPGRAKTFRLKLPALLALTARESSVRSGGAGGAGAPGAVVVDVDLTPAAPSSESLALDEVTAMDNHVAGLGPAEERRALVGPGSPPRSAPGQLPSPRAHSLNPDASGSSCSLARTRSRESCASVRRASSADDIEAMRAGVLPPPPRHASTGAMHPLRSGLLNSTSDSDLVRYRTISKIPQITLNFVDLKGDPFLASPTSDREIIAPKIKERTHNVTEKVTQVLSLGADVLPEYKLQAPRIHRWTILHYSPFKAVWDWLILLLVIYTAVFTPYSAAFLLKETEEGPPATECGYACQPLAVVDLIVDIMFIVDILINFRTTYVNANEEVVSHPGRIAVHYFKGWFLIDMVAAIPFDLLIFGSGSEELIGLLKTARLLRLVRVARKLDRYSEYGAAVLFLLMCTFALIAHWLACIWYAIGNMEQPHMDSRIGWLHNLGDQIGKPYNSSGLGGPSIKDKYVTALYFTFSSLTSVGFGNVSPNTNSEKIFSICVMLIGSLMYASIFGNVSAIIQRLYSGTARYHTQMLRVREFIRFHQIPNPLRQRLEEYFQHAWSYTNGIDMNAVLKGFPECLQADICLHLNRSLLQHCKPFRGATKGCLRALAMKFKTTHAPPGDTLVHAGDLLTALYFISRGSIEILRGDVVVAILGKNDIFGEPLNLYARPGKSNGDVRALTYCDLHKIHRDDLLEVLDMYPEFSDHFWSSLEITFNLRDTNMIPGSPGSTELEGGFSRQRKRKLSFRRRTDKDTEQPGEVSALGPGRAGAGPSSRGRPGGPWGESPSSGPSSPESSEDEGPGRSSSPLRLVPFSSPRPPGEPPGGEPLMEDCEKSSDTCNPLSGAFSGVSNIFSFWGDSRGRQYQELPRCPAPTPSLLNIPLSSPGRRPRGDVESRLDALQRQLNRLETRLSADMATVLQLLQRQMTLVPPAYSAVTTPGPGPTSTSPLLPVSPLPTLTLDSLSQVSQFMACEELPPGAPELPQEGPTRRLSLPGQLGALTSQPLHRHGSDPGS
row,SMILES,"hERG current change (%, negative = inhibition) at 10uM [%]"
1,COc1ccccc1CN1CCN(Cc2nc(Cc3ccccc3)no2)CC1,-36
2,C=CCOC(=O)C1=C[C@H](c2cn(C(C)=O)c3ccccc23)C[C@H](OCCCCO)O1,-38.7
3,COc1ccc(CNC(=O)C2CC(C)=C(C)CC2C(=O)O)cc1OC (stereo not drawn),21.1
4,COc1ccc2c(c1)C(=O)N1[C@H]3c4cc(C)ccc4OC[C@@H]3[C@H](c3ccccc3)[C@]1(C)C(=O)N2,5.97
5,Cc1ccccc1NCC(=O)c1ccc(Br)cc1,0.178
6,C=C(C)CNC(=S)NNC(=O)c1ccco1,17.6
7,COc1cc2c(cc1OC)CN(C(=O)C(CCSC)NS(=O)(=O)c1ccc(C)cc1)CC2 (stereo not drawn),10.7
8,Cc1ccc(/C=C2\SC(=S)N(C3CCS(=O)(=O)C3)C2=O)o1 (stereo not drawn),-4.91
9,CN1CCN(C(=S)Nc2cccc(C(F)(F)F)c2)CC1,-0.365
10,COc1cc(NC(=O)COC(=O)Cc2ccc(-c3ccccc3)cc2)cc(OC)c1,3.6
11,CC(C)(C)OC(=O)N1CCC(NC(=O)c2nc[nH]c2C(=O)NCC(=O)OCc2ccccc2)CC1,-45.6
12,N#CCc1ccc(NS(=O)(=O)c2ccc(C3CCCCC3)cc2)cc1,6.06
13,Cc1ccc(CN2CCN(Cc3c[nH]c4ccccc34)CC2CCO)o1 (stereo not drawn),-8.71
14,COc1ccc(C(=O)NC(C)Cn2nc(C)cc2C)cc1OC1CCN(C(C)=O)CC1 (stereo not drawn),-4.23
15,COc1ccc(/C=C2\Cc3ccccc3C2=O)cc1OC,14.1
16,COc1ccccc1OCC(O)COC(N)=O (stereo not drawn),10.3
17,CN1CCN(C(=O)CN(c2cc(C(F)(F)F)ccc2Cl)S(C)(=O)=O)CC1,15
18,Fc1cccc(F)c1-c1nc2c(s1)CCc1onc(-c3ccc(Br)cc3)c1-2,23.2
19,Cc1nn(Cc2ccccc2Cl)c(C)c1NC(=O)/C=C/c1cnn(C)c1,10.2
20,Cn1c(NCc2ccc(Cl)cc2)nc2ccccc21,-49
21,COc1ccc(C(=O)Nc2c(N)nc[nH]c2=O)cc1,0.0988
22,COC(=O)C(C)Oc1ccc2c3c(c(=O)oc2c1)CCCCC3 (stereo not drawn),-59.2

row,SMILES,"hERG current change (%, negative = inhibition) at 10uM [%]"
1,Cc1ccc(C(=O)Nc2ccc(C)c(S(=O)(=O)N3CCOCC3)c2)c(C)c1,-51
2,Cc1ccc(-c2nnc(SCC(=O)N/N=C/c3ccc(C)s3)n2-c2ccccc2)cc1,-9.42
3,CCOC(=O)c1cc(-c2cccnc2)nn1-c1ccccc1,9.52
4,O=C1CC(C(=O)N2CCc3ccccc32)CN1c1ccccc1 (stereo not drawn),-6.98
5,CCOc1ccc(NC(=O)CC2C(=O)N(c3ccc(OC)cc3)C(=O)N2CCc2cccs2)cc1 (stereo not drawn),-36.1
6,CCOC(=O)C1CCCN(S(=O)(=O)c2ccc(Br)c(OC)c2)C1 (stereo not drawn),-14.3
7,O=C(NCc1ccc(F)cc1)c1cc(-c2ccncc2)nc2ccccc12,-64.7
8,CCN1CCN(S(=O)(=O)c2cccc3nsnc23)CC1,-5.57
9,CC(C)C(=O)N1CCC(CN=CC2=C(O)CC(C)(C)CC2=O)CC1,11.1
10,C/C(CC(=O)Nc1cccnc1)=N\NC(=O)C(=O)Nc1cccc(C)c1,-24.7
11,O=C(NCc1cccs1)C1CCCN1C(=O)Nc1cccc(Cl)c1 (stereo not drawn),2.92
12,CCC(Cc1ccccc1)NC(=O)CCc1ccccc1 (stereo not drawn),13.5
13,CCNc1ccccc1C(=O)O,7.63
14,CC(C)N(CCNC(=O)c1ccc(CS(=O)(=O)c2c(Cl)cccc2Cl)o1)Cc1ccccc1,-70.6
15,Cc1nn(CC(=O)NCCCN2CCN(C)CC2)c(=O)c2cc(-c3ccccc3)nn12,0.586
16,C/C=C/C=C\C(=O)Nc1cccc(C2=NOC3(C2)C[C@H](C(N)=O)N(C(=O)CC#N)C3)c1 (stereo partly drawn),3.77
17,COc1ccc(/C=C/C(=O)Nc2ccc3c(c2)CCC3)cc1OC,14.1
18,CCOc1ccc(C(=O)NC(=S)NCCCN2CCOCC2)cc1,-50.1
19,S=c1[nH]c2ccccc2c2ccccc12,21.1
20,CN(C)CCNC(=O)c1ccccc1,1.62
21,Cc1ccc(CNC(=O)C2CCN(S(=O)(=O)c3cccs3)CC2)cc1,13.2
22,CCOc1ccc(Nc2cc(C)nc3c(C)cccc23)cc1,-45.6

row,SMILES,"hERG current change (%, negative = inhibition) at 10uM [%]"
1,COC(=O)C1=C(O)/C(=C\c2ccc(OCC(=O)Nc3ccccc3)cc2)N=C1C,5.46
2,COc1ccc(OC)c(CN2CCCC(C(=O)c3sccc3C)C2)c1 (stereo not drawn),-63.9
3,Cc1c(C(=O)OCC(=O)N(C)CC(=O)Nc2ccc(F)cc2)oc2ccccc12,14.3
4,c1ccc(Cn2nnc3c(N4CCc5ccccc5C4)ncnc32)cc1,-21.5
5,CCOC(=O)C(NC(C)=O)(Nc1ccc(S(=O)(=O)Nc2cc(C)nc(C)n2)cc1)C(F)(F)F (stereo not drawn),9.88
6,CSc1ccc(C(=O)C2CCCN(C(=O)CCc3cnn(C)c3)C2)cc1 (stereo not drawn),-13.3
7,O=C(NC(=S)Nc1c(Cl)ccc2nsnc12)c1ccco1,25.8
8,CCC(C)NC(=O)CSc1nc2ccc(N3CCOCC3)cc2c(=O)n1CCc1ccccc1 (stereo not drawn),3.14
9,Cc1ccccc1OCc1nnc(SCC(=O)O)n1-c1cccc(Cl)c1,5.63
10,CCCc1cc(=O)oc2cc(C)cc(OC(C)C(=O)NCC3CCC(C(=O)O)CC3)c12 (stereo not drawn),6.11
11,COc1cccc(S(=O)(=O)NCc2ccc(C(=O)NCC3CCCO3)cc2)c1 (stereo not drawn),-5.79
12,CC(=O)Nc1cccc(O)c1,21.7
13,O=C(COc1ccc(S(=O)(=O)Nc2cccc(C(F)(F)F)c2)cc1)N1CCOCC1,2.47
14,Cc1ccc(CN(C)C(=O)c2cc(COc3ccc(F)cc3Cl)on2)o1,-22.9
15,N#C/C(=C/c1cn(-c2ccccc2)nc1-c1cccc(S(=O)(=O)N2CCOCC2)c1)C(=O)NCc1ccco1,-8.53
16,C/C(=N\NC(=O)c1c([N+](=O)[O-])c(C)nn1C)c1ccc(NC(=O)c2ccc(C)o2)cc1,17
17,CC#CCN1c2ccccc2[C@]23C[C@@H](C(=O)OC)N(C(=O)c4ccc(Br)cc4)C2=NC(C(=O)OC)=C(C(=O)OC)[C@H]13,6.76
18,CCc1ccc(NC(=O)CSc2n[nH]c(C)c2[N+](=O)[O-])cc1,5.31
19,O=C(N/N=C/c1ccc([N+](=O)[O-])o1)c1cc(-c2ccc(-c3ccccc3)cc2)nc2ccccc12,17.7
20,COc1ccc(C(=O)N2CCCC(N3CCN(c4ccccc4F)CC3)C2)c(OC)n1 (stereo not drawn),0.587
21,Cc1ccc(Nc2nc3nonc3[nH]c2=O)cc1C,15.9
22,CC(C)Nc1nnc(SCC(=O)Nc2sccc2C#N)s1,-10.3

row,SMILES,"hERG current change (%, negative = inhibition) at 10uM [%]"
1,CCOP(=S)(OCC)SCOC(=O)NCC(=O)OC,13.1
2,Cc1ccccc1-c1nc(CS(=O)(=O)CC(=O)NCc2ccco2)c(C)o1,-21.7
3,CC(=O)Nc1ccc(-c2sc(Nc3cccc4ccccc34)n[n+]2-c2ccccc2)cc1.[Cl-],-1.21
4,O=c1[nH]c(=O)n(C2CCCCC2)c(O)c1C1NCCc2ccccc21 (stereo not drawn),14.5
5,CN(C)S(=O)(=O)c1ccc(C(=O)NCCc2ccco2)cc1,4.04
6,COc1ccc(OC)c(S(=O)(=O)N2CCC(C(=O)Nc3cc(C)ccc3C)CC2)c1,8.62
7,COc1ccc(C(=O)n2c(N)nc3ccccc32)cc1OC.Cl,-2.37
8,FC(F)(F)c1ccccc1NC(=S)N1CCN(Cc2ccc3c(c2)OCO3)CC1,-36.5
9,O=C(NCCc1ccc(Cl)cc1)Nc1cccc(Cl)c1,0.363
10,CN1CCN(c2ccc(C(=O)c3ccc(Br)cc3)cc2[N+](=O)[O-])CC1,-72.1
11,O=C(NCCOc1ccccc1)c1ccccc1Cl,-0.87
12,O=C(NCCOC(=O)c1cccs1)c1cccnc1,1.92
13,CC(C)(CNC(=O)Cc1ccc(Cl)cc1Cl)N1CCCCC1,7.29
14,CC(=O)Nc1ccccc1C(=O)C(=O)Nc1cccc(F)c1,3.43
15,O=C(c1cc2cc(Br)ccc2[nH]1)N1CCC2(CC1)OCCO2,-1.15
16,COc1cccc(-c2nnc(NC(=O)c3ccccc3Br)o2)c1,-8.88
17,COCCn1c(=O)[nH]c2cc(C(=O)NCCc3ccc(OC)c(OC)c3)ccc2c1=O,10.6
18,CC(c1ccco1)N(Cc1ccco1)C(=O)Nc1ccccc1 (stereo not drawn),3.62
19,Cc1nc(Nc2ccc(Cl)c(Cl)c2)sc1C(=O)Nc1ccccc1,10.9
20,CCC1CCCCN1CC(O)COCc1cccc(OC)c1 (stereo not drawn),3.15
21,Clc1ccc(-c2noc(CSc3nnc(-c4ccncc4)n3-c3ccccc3)n2)cc1,-39.2
